# Assay results reported in PMC6919601, “Identification of Plasmodium dipeptidyl aminopeptidase allosteric inhibitors by high throughput screening” (PLoS ONE, 2019).
# In all, about 110,000 compounds went through this assay and about 230 (0.21%) showed an effect of 50% or more. This is one part of the list.
# Target: DPAP1 (Plasmodium falciparum, UniProt Q8IIJ9)
# Assay: primary screen, percent inhibition; read by cleavage of a fluorogenic dipeptide substrate; higher = more effect of the substance
# Set-up: species or system P. falciparum D10 trophozoite lysates; single well
# 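Further: 30 min substrate incubation versus DMSO and 10 µM JCP410 controls.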
# DPAP1, sequence (Q8IIJ9 whole entry, looked up): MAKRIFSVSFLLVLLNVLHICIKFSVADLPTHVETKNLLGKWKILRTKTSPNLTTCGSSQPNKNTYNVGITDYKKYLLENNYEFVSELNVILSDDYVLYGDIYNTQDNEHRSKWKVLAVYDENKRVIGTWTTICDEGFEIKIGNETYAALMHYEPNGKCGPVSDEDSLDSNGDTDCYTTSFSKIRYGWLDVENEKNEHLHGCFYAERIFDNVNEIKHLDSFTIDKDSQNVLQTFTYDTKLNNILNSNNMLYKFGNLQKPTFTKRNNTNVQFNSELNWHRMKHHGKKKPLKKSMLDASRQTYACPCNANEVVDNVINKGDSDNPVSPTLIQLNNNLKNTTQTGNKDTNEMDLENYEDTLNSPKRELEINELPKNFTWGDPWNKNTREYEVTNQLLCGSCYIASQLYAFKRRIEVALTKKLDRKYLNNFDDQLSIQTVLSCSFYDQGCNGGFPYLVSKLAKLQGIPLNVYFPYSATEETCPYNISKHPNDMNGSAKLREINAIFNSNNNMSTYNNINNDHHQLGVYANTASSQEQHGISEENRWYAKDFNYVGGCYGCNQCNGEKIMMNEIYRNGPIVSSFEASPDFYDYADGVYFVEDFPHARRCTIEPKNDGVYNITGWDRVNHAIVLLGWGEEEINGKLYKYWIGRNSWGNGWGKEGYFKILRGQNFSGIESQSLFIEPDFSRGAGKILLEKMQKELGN
row,SMILES,% Inhibition @ 10 uM [%]
1,CCc1ccc(N2CC(C(=O)Nc3cccc(OC(C)C)c3)CC2=O)cc1 (stereo not drawn),-2.83
2,CN(C)CCC1c2ccccc2CSc2ccccc21 (stereo not drawn),-0.759
3,Cc1cc(C)c(NC(=O)c2ccc(Br)o2)c(C)c1,-2.18
4,Cc1cccc(-n2c(-c3cccs3)nc3ccccc3c2=O)c1,0.812
5,Cc1nc2ccn(Cc3cccs3)c(=O)c2cc1C(=O)N1CCN(c2ccccn2)CC1,1.11
6,CCOc1cccc2sc(N(CCN(C)C)C(=O)c3ccco3)nc12,-9.17
7,O=C(O)C(Cc1ccc(F)cc1)NS(=O)(=O)c1ccc(Br)s1 (stereo not drawn),5.49
8,CS(=O)(=O)N(CC(=O)N1CCc2ccccc2C1)c1ccccc1Cl,3.44
9,Cc1ccc(Oc2c(C(F)(F)F)oc3c(CN4CC(C)OC(C)C4)c(O)ccc3c2=O)cc1 (stereo not drawn),-1.17
10,COC(=O)/C(C#N)=C/c1c(Oc2ccc(C(C)(C)C)cc2)nc2ccccn2c1=O,5.89
11,COc1ccc(-c2noc(CN(C(=O)CCC3CCCC3)C(C)C)n2)cc1,1.1
12,COc1ccccc1OCCSc1nnc2nc(O)cc(N)n12,-4.78
13,CCC(C)Nc1ncnc2c1cnn2-c1cccc(C)c1 (stereo not drawn),-3.38
14,COc1cc(OC)c(OC)cc1/C=C1\CCC(C2CCCC2)C1=O (stereo not drawn),7.57
15,Oc1nc2ccccc2nc1C(F)(F)C(F)F,-8.03
16,Cc1ccc(-c2nc3c(c(-c4ccc(C)cc4)n2)CCCC3)cc1,-10.3
17,CCOC(=O)C1=NNC(C(=O)c2ccc(OC)cc2)C1c1ccccc1Cl (stereo not drawn),5.59
18,O=C1C2CCN(CC2)C1Cc1ccc(OCCOc2ccccc2)cc1 (stereo not drawn),2.14
19,O=C(Cn1c(COc2ccccc2)nc2ccccc21)NC12CC3CC(CC(C3)C1)C2,1.32
20,Cc1cccc(OCC(=O)Nc2cccc(Oc3ccc4c(c3)C(=O)NC4=O)c2)c1C,4.76
21,CCCOc1ccc(C2(C)CC(=O)NC2=O)cc1 (stereo not drawn),-6.22
22,CCCCCN1CCCn2c1nc1c2c(=O)n(C)c(=O)n1C,4.11
23,O=C(NCc1ccccc1)C(=O)Nc1cccc2ccccc12,3.15
24,CCOc1ccccc1OCc1nn2c(-c3ccc(C)cc3)nnc2s1,2.89
25,CCOC(=O)c1sc(N2C(=O)c3oc4cc(C)c(C)cc4c(=O)c3C2c2ccc(F)cc2)nc1C (stereo not drawn),3.73
26,Cc1ccccc1OCC(=O)Nc1ccccc1C(=O)Nc1ccccc1,-2.8

row,SMILES,% Inhibition @ 10 uM [%]
1,CC(c1ccccc1)n1c(S(=O)(=O)O)nc2ccccc21 (stereo not drawn),-0.0626
2,N#CC1=C(N)N(c2cccc(Br)c2)C2=C(C(=O)CCC2)C1c1cccs1 (stereo not drawn),-0.305
3,COc1ccc2cc(C=O)c(Cl)nc2c1,12.3
4,O=S(=O)(c1ccc(Cl)cc1)N1CCOC1C(Cl)(Cl)Cl (stereo not drawn),18
5,Cn1nc(C(=O)NCCc2ccc(Cl)cc2)c2c1-c1ccccc1S(=O)(=O)C2,2.07
6,c1ccc(-n2ncc3c2CCc2c-3[nH]c3ccccc23)cc1,-0.424
7,COc1ccc(Br)cc1CNC(=O)CCn1c(=O)c2cccn2c2cccnc21,6.65
8,CC(C)C[C@H](NC(=O)c1ccccn1)C(=O)NCC#N,-9.15
9,Cc1ccccc1/C=C1\Cc2ccccc2C1=O,-2.95
10,Cc1[nH]c2ccccc2c1CCC(=O)NC(C)(C)C,-3.58
11,CCc1c(C)sc(N)c1C(=O)NC1CCCCC1,3.03
12,C#CCNC(=O)Cn1c(C)nc2ccccc21,-0.473
13,N#CC1=C(NC(=O)Cc2ccccc2)c2ccccc2CC12CCCCC2,-0.807
14,Cc1sc2[nH]c(=O)n(-c3ccc(Cl)c(Cl)c3)c(=O)c2c1C,-0.711
15,Cc1cccc(N2CCN(Cc3ccnc4ccccc34)CC2)c1C,-1.78
16,COC(=O)c1c(NC(=O)c2cc(=O)c3cc(Cl)ccc3o2)sc2c1CCC2,3.31
17,Cc1c(CCC(=O)O)c(=O)oc2c(C)c3occ(-c4ccccc4)c3cc12,-4.75
18,CCc1ccccc1N(CC(=O)NC1CCCC1)S(=O)(=O)c1ccccc1,-0.564
19,Cc1cccc(Cn2c(N3CCNCC3)nc3c2c(=O)[nH]c(=O)n3C)c1,6.92
20,CCC1CCc2c(sc(NC(=O)C3CC=CCC3C(=O)O)c2C#N)C1 (stereo not drawn),2.01
21,O=S(=O)(NCCSc1ccc(Cl)cc1)c1ccc(Br)cc1,2.05
22,O=C(NCCCc1ccccc1)c1cc2c(s1)CS(=O)(=O)C2,-3.84
23,COCCOC(=O)C1=C(C)OC(N)=C(C#N)C1c1ccc(C)cc1 (stereo not drawn),9.09
24,CC(O)CN(Cc1ccccc1Cl)CC(C)O (stereo not drawn),3.48
25,CC(C)Oc1ccc(OCCn2c(S(=O)(=O)O)nc3c(N)ncnc32)cc1,-3.5
26,OC1(C#CCN2CCCC2)CCCCC1,-0.128

row,SMILES,% Inhibition @ 10 uM [%]
1,CCOc1cc(C)c(Cl)cc1S(=O)(=O)N1CCC(C(N)=O)CC1,-7.17
2,COc1ccc(NC2=C(Cl)C(=O)N(c3ccc(C)cc3)C2=O)cc1,4.75
3,CCCCNC(=O)CS(=O)Cc1nc(-c2ccc(OC)cc2)oc1C (stereo not drawn),2.16
4,O=C(O)COc1ccc(NC(=O)c2ccco2)cc1,0.00178
5,CC1CCCCC1NS(=O)(=O)c1ccc(S(=O)(=O)N2CCN(CCC#N)CC2)cc1 (stereo not drawn),-1.82
6,O=C(c1ccc(CN2CCOCC2)cc1)N1CCN(c2cccc(Cl)c2)CC1,11.5
7,Oc1cc(C(F)(F)F)nn1-c1nc2ccccc2[nH]1,2.31
8,COC(=O)c1sccc1NC(=O)/C=C/C(=O)O,0.587
9,C=CCN(Cc1ccccc1F)C(=O)Nc1ccccc1,2.84
10,O=C1CC(N2CCN(Cc3ccccc3)CC2)C(=O)N1c1ccc(Br)cc1 (stereo not drawn),0.147
11,CSc1ccc(-c2nc(CSCC(=O)NC(C)c3ccc4c(c3)OCCO4)c(C)o2)cc1 (stereo not drawn),3.99
12,CO/C(O)=C1\C(C)=NC(=S)NC1c1cn(-c2ccccc2)nc1-c1ccc(F)cc1 (stereo not drawn),3.15
13,NC(=O)c1c(NC(=O)c2ccc(Cn3cc(Br)cn3)cc2)sc2c1CCCC2,6.79
14,CCOc1ccc(N2C(=O)CC(NCCc3ccccc3Cl)C2=O)cc1 (stereo not drawn),5.94
15,COc1ccc(CNc2oc(COc3ccc(OC)cc3)nc2C#N)cc1,-1.98
16,O=[N+]([O-])c1ccc(N2N=C(c3ccccc3)CC2c2ccccc2)cc1 (stereo not drawn),-4.06
17,CCOC(=O)c1cc(-c2ccc(F)cc2)n(CC(=O)N(C)Cc2ccccc2)c1C,-0.176
18,O=C(O)CC(Cc1ccc(Cl)cc1)C(=O)NCc1ccccc1 (stereo not drawn),1.12
19,O=C(c1ccncc1)N1CCN(C(=O)c2ccccc2F)CC1,2.22
20,O=C(CSc1nc(O)c2c(n1)CCC2)N1CCCCCC1,0.236
21,O=C(O)C1CSC(c2cccc(OCc3ccccc3)c2)N1 (stereo not drawn),1.88
22,CC1=NN(C(=O)CCc2ccccc2)C(O)(c2ccccc2)C1 (stereo not drawn),-6.67
23,O=C(COc1ccc(Cl)cc1Cl)NCCn1ccc2ccccc21,-4.16
24,O=c1cccc(-c2ccc(Br)cc2)o1,10
25,Cc1cc(-c2ccccc2Cl)oc1-c1nn2c(-c3ccoc3C)nnc2s1,-0.946
26,O=C(Cn1cnc2cc(Cl)ccc2c1=O)c1cccc2ccccc12,5.44

row,SMILES,% Inhibition @ 10 uM [%]
1,CCCCCCSc1nc(O)cc(=O)n1C,-0.856
2,COc1ccc(CCN2C(=O)CSC2c2ccc(F)cc2)cc1OC (stereo not drawn),-4.57
3,O=C(Cn1c(-c2cccs2)cc2ccccc21)N1CCN(c2ccccn2)CC1,2.97
4,CCOc1ccc2nc(NC(=O)CN3C(=S)NC(C)(C)CC3C)sc2c1 (stereo not drawn),-4.67
5,COc1ccc(CC(=O)NCC2(c3ccc(OC)c(OC)c3)CCCC2)cc1OC,7.1
6,Cc1ccccc1CN1CCN(Cc2cccnc2)CC1,-3.87
7,CC(C)NC(=O)CCc1nnc2n(CCc3ccccc3)c(=O)c3ccccc3n12,-0.905
8,CC1CC(C)CN(c2ncnc3c2nc2n3CCCCC2)C1 (stereo not drawn),2.01
9,CC1CCOC(c2coc3ccccc3c2=O)O1 (stereo not drawn),-0.312
10,CCCNC(=O)c1cc(Cl)cc(Cl)c1NC(=O)c1ccco1,-0.62
11,CC(C)(C)c1ccc(C(=O)N2N=C(C(F)F)CC2(O)C(F)F)cc1 (stereo not drawn),-5.07
12,COCCNC(=O)CCCC(=O)n1ncc2cc(C)ccc21,5.39
13,COc1ccccc1C1NCCc2[nH]cnc21 (stereo not drawn),0.774
14,CC(C)(C)NS(=O)(=O)c1cn(CC(=O)NC2CCCCC2)cc1S(=O)(=O)NC(C)(C)C,1.84
15,Oc1nccc2c1ncn2C1CCCCC1,-1.2
16,CCOC(=O)c1ccc(NC(=O)c2cc3c(C)nn(-c4ccccc4)c3s2)cc1,-1.75
17,O=C1c2ccccc2NC(c2ccccc2)N1c1ccc(F)cc1 (stereo not drawn),1.34
18,CN(C(=O)C1CCN(S(=O)(=O)c2cccc3nonc23)CC1)C1CCCCC1,2.8
19,CCN(Cc1ccccc1)C(=O)Cn1cc2c(n1)-c1c(oc(C(=O)N3CCCC3)c1C)CC2,-0.804
20,CC1(C)C=C(c2ccc(/C=C3\CCC/C(=C\c4ccc(C5=CCC(C)(C)NC5(C)C)s4)C3=O)s2)CC(C)(C)N1,11.7
21,CCOC(=O)c1c(NC(=O)CNCCCN2CCOCC2)sc2c1CCCCC2,7.75
22,Cc1ccc(C(=O)COC(=O)c2cc3ccccc3oc2=O)cc1C,4.95
23,COC(=O)/C(C#N)=C/c1c(Oc2ccccc2Cl)nc2ccccn2c1=O,4.06
24,COc1ccc([C@H]2Oc3ccccc3C[C@H]2O)cc1,-13.5
